Data on 53 compounds can be found in ChEMBL document CHEMBL4888484, “Replenishing the malaria drug discovery pipeline: Screening and hit evaluation of the MMV Hit Generation Library 1 (HGL1) against asexual blood stage Plasmodium falciparum ,using a nano luciferase reporter read-out” (2022).

In all, about 150,000 compounds went through this assay and about 540 (0.36%) showed an effect of 50% or more. The list shows a part of the results.

Usually % Inhibition stands for the drop in the measured response relative to a control, in per cent.

This assay deals with Plasmodium falciparum. In words: Primary screen in NF54 nanoGlo assay, in single point, at 2uM, 72h; a lower Z score goes with more inhibition. The note with it: timepoint 72 hour. Type of assay: functional, Erythrocyte.
Regarding `CCOc1ccccc1NC(=O)C[C@H]1C(=O)Nc2ccccc2N1C(=O)COc1ccccc1OC`, the “% Inhibition” value turned out to be 3% and the Z score is reported as -0.47.
Taken in the same sequence, the figures for `COc1ccc(-n2nc(C)c3sc(N4CCN(C(=O)C(C)(C)C)CC4)nc32)cc1` were 8% and -0.96.
Taken in the same sequence, the figures for `Cc1cc(NC(=O)N(C)Cc2ccccn2)ccc1N1CCCC1` were 4% and -0.73.
Take `CCOC(=O)C1CCN(C(=O)Cc2ccc(N(Cc3cccc(F)c3)C(=O)CC(C)C)cc2)CC1`: the “% Inhibition” value is reported as -6% and the Z score is reported as 0.75.
Taken in the same sequence, the figures for `Cc1nc(CO[C@H]2CCCN(Cc3ccc4cc[nH]c4c3)C2)no1` were 7% and -1.03.
As to `O=C([C@@H](O)C1CC1)N1CCC(c2nc(C(F)(F)F)cs2)CC1`, the “% Inhibition” value came to 3% and the Z score is -0.38.
As to `CCn1ncnc1[C@@H](NC(=O)c1ccc(N2CC(=O)NC2=O)cc1)C1CC1`, the “% Inhibition” value came out at 1% and the Z score is reported as -0.14.
The matching figures for `CC(Oc1ccccc1)C(=O)N1CCCC1c1nc(-c2cccc(Cl)c2)no1` (stereo unspecified): -1% and 0.1.
Taken in the same sequence, the figures for `Cc1ccc(CNC(=O)CN2C(=O)CCn3nc(-c4cn(C)c5ccccc45)cc32)o1` were 3% and -0.55.
Take `O=c1ccc(N2CCC[C@H](NS(=O)(=O)c3ccc(F)c(Cl)c3)C2)n[nH]1`: the “% Inhibition” value is on record as -10% and the Z score was 1.3.
The matching figures for `COc1ccc(CN2CCN(C(=O)N(C)C)[C@H]3CS(=O)(=O)C[C@H]32)cc1`: 5% and -0.76.
The matching figures for `CCc1ccc(-c2ccc(C(=O)N3CCOC[C@H]3C(=O)O)o2)cc1`: -16% and 1.62.
Consider `CCC(O)C1CCCCN1Cc1c(C)nc2ccccn12` (stereo unspecified), for which the “% Inhibition” value is listed as -5% and the Z score amounted to 0.87.
For `CCN(CC)C(=O)CN1CCCN(C(=O)c2ccc(-c3nncn3CC)cc2)CC1`, the “% Inhibition” value was -7% and the Z score stood at 0.9.
The matching figures for `O=S(=O)(Cc1ccc(Cl)cc1-n1cncn1)CC1CC1`: -4% and 0.71.
On to `O=C(NCc1ccc(N2CCOCC2)cc1)c1cn(CCN2CCOCC2)nn1`, for which the “% Inhibition” value was -10% and the Z score turned out to be 1.32.
Turning to `Cc1nnc(CNc2ccccc2NC(=O)Cc2cccs2)n1C`, the “% Inhibition” value is -6% and the Z score came to 0.54.
Consider `CN1CCCC(CN=C(N)N(C)C2CC2)C1c1cccc(Cl)c1` (stereo unspecified), for which the “% Inhibition” value was 0% and the Z score is 0.02.
With `O=C(c1cc(C2CC2)[nH]n1)N1CCCCCC1`, the “% Inhibition” value stood at 1% and the Z score is recorded as -0.15.
The matching figures for `O=C(Cc1cccc(Cl)c1)N[C@H]1CCCN(c2cc(-c3ccccc3)n[nH]2)C1`: 7% and -0.66.
The matching figures for `O=C(CCn1c2c(c3ccccc31)CCCC2)N1CCC2(CCCCO2)CC1`: -11% and 1.42.
The matching figures for `Cc1ccc(CN2CC[C@@H](N(C)CCc3ccccn3)CCC2=O)cc1`: -11% and 1.5.
With `Fc1cccc(CN2CCC[C@@]3(CCN(Cc4cccn4-c4ncccn4)C3)C2)c1F`, the “% Inhibition” value was -8% and the Z score turned out to be 1.14.
The matching figures for `CCc1nc(C2(NCCNS(C)(=O)=O)CCCC2)no1`: -8% and 0.97.
Taken in the same sequence, the figures for `CN1CCC(N2CCN(Cc3ccc(C4CCCC4)s3)C[C@@H]2CCO)CC1` were 7% and -0.99.
With `Cn1c(C(F)(F)F)nn(CCNS(=O)(=O)CCN2C(=O)CCCC2=O)c1=O`, the “% Inhibition” value is -4% and the Z score is 0.47.
Taken in the same sequence, the figures for `NC(=O)N1CCC[C@H](C(=O)OCCc2ccccc2C(F)(F)F)C1` were 15% and -1.69.
Turning to `O=C(N[C@@H]1[C@@H]2CCO[C@@H]2[C@H]1N1CCCCC1)c1cccc(-c2ccco2)c1`, the “% Inhibition” value is reported as -18% and the Z score is 3.13.
On to `COc1ncc(-c2ccc(-c3ccn[nH]3)cc2)c(OC)n1`, for which the “% Inhibition” value was -13% and the Z score was determined as 1.17.
On to `O=C(Cc1ccccc1)Cn1cnc2c(c1=O)CCC2`, for which the “% Inhibition” value is -10% and the Z score was 1.05.
The matching figures for `O=C(CC1=CCCCC1)NC[C@H](O)c1ccc(OC(F)F)cc1`: -14% and 1.53.
Taken in the same sequence, the figures for `CC(C)c1ccc(OC/C=C/Cn2ccnc2)cc1` were -17% and 1.83.
Taken in the same sequence, the figures for `N#Cc1cc2c(nc1N1CCC[C@H](C(F)(F)F)C1)CCC2` were 0% and 0.02.
`Cc1ccn(C)c(=O)c1NCc1ccns1`: the “% Inhibition” value turned out to be 0% and the Z score is reported as -0.01.
Turning to `CCc1ccc(OCCN(C)C(=O)CCN2CCCC2=O)cc1`, the “% Inhibition” value turned out to be 18% and the Z score is -2.31.
The matching figures for `O=C1Nc2ccc(S(=O)(=O)N3CCOCC3)cc2C1=O`: -16% and 2.38.
Take `CN(CCN(C)C1CCCC1)C(=O)CCC(=O)c1ccccc1`: the “% Inhibition” value was -10% and the Z score came to 1.74.
Taken in the same sequence, the figures for `CCc1cccnc1C(=O)N[C@H](c1ncccn1)C1CC1` were 6% and -0.71.
As for `C[C@@H]1NC(=O)[C@@H]2C[C@H](NC(=O)c3cccnc3Oc3ccc(Cl)cc3)CN2C1=O`, the “% Inhibition” value was -9% and the Z score came out at 1.01.
As to `N#C[C@H]1CCCN(C(=O)Nc2cc(C(=O)N3CCOCC3)ccc2Cl)C1`, the “% Inhibition” value is reported as -6% and the Z score is recorded as 0.88.
Taken in the same sequence, the figures for `CC(O)C1CCN(C(=O)NCCOc2ccc(C(C)(C)C)cc2)C1` (stereo unspecified) were -8% and 0.72.
The matching figures for `CCOc1ccc(CNC(=O)c2cnc3c(-c4cccc(C)c4)c(C)nn3c2C(F)(F)F)cc1`: -7% and 0.78.
Regarding `Cc1nc(N)nc(-c2cccc(C(=O)N3CCC(F)(F)CC3)c2)c1Cl`, the “% Inhibition” value is on record as -16% and the Z score was determined as 2.29.
Turning to `O=C(c1cc(=O)c2ccccc2[nH]1)N1C[C@@H]2[C@H]3CC[C@H](CC3)[C@@H]2C1`, the “% Inhibition” value is reported as 5% and the Z score is given as -1.09.
For `CC(C)Cc1nc(N2CCN(C(=O)C3CCCC3)CC2)c2c(-c3cccc(Oc4ccccc4)c3)noc2n1`, the “% Inhibition” value is recorded as -10% and the Z score worked out at 1.24.
Taken in the same sequence, the figures for `C=CCN(CC=C)C(=O)CN[C@@H](C)c1cn(C)nc1C` were -10% and 1.
Consider `CN(C)[C@@H](CNC(=O)Cn1cccn1)c1ccsc1`, for which the “% Inhibition” value is reported as -7% and the Z score is given as 1.31.
The matching figures for `O=C(O)[C@H]1c2nc[nH]c2CCN1Cc1cccc(Oc2ccccc2)c1`: 19% and -2.68.
Taken in the same sequence, the figures for `CCO[C@@H](C)C(=O)NCCCN(C)c1ccccc1` were -3% and 0.42.
For `CCCOc1ccc([C@@](C)(C#N)CC#N)cc1`, the “% Inhibition” value is reported as 4% and the Z score was -0.52.
The matching figures for `c1ccc(C(NCc2cc[nH]n2)C2CCCc3ccccc32)cc1` (stereo unspecified): -7% and 0.75.
The matching figures for `Cc1cccc(OCc2ccc(C(=O)N3CCOCC3)cc2)c1`: -14% and 1.53.
The matching figures for `C[C@H](NCc1c2c(nn1C)CCCC2)c1ccccc1Cl`: 2% and -0.21.
